Experimental data published in PubChem BioAssay AID686971 (National Center for Advancing Translational Sciences (NCATS), 2013).
The campaign covered roughly 360,000 compounds. About 7,500 (2.1%) were called active. Inconclusive results, whose numbers are uncertain, are shown with a selection of clear calls. Calls come from the whole dose curve; as a rule, active = well fitted cell-killing curve with a large enough effect; inconclusive = small, poorly fitted or top-dose-only effect, or effect the other way, or another doubt; inactive = no such curve, though single readings can be large or run the other way. Potencies of inconclusive entries are left out as doubtful fits.

Assay: qHTS for induction of synthetic lethality in tumor cells producing 2HG: qHTS for the HT-1080-IDH1KD cell line;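 for activity, negative = toxicity: 0% = DMSO wells and -100% = cell-free medium wells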
Details: HT-1080 IDH1 knockdown viability, ATP luminescence, 48 h; activity, negative = toxicity: at 46.1 µM (top of the series) unless noted
How it was run: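 IDH1KD HT-1080 cells, 750/well, RPMI + 5% FBS; compound pinned after 2 h settling; 48 h, 37 °C; CellTiter-Glo luminescence; % activity normalised to DMSO and no-cell wells; curves fitted, classed by r2 and efficacy.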
Potency is the fitted concentration of half-maximal effect; tags give direction and shape of the fitted curve.

Row | SMILES | Potency | activity, negative = toxicity
1 | CCOc1cc(/C=N/NC(=O)COc2ccc(Cl)cc2)ccc1OS(=O)(=O)c1ccccc1 | inconclusive [cytotoxic, single point] | –
2 | COc1cccc(C(=O)NCC(=O)N/N=C/c2cccs2)c1 | – | inactive: 29.6%
3 | O=C(CSc1nnc(-c2cccs2)o1)N1CCc2ccccc21 | – | inactive: -2.85%
4 | Cc1ccccc1-c1cccc([C@@H]2C[C@H]3[C@H](CON3C)CN2Cc2ccccc2)c1 | inconclusive [cytotoxic, single point] | –
5 | Cc1cccc(N2CCN(C(=O)CNC(=O)C3CCCCC3)CC2)c1C | inconclusive [cytotoxic, single point] | –
6 | CCn1c(=N)n(CC(O)COc2cccc(C)c2)c2ccccc21 (configuration not stated) | inconclusive [cytotoxic, single point] | –
7 | Cc1ccc(S(=O)(=O)Nc2ccc3c(c2)nc(CCN2CCCCC2)n3C)cc1 | inconclusive [cytotoxic, partial curve] | –
8 | CC1CCCC(NC(=S)Nc2cccc(S(=O)(=O)N(C)C)c2)C1C (configuration not stated) | inconclusive [cytotoxic, single point] | –
9 | COc1cccc(NC(=O)CN(C)C(=O)/C=C/c2cn(-c3ccccc3)nc2-c2ccc(C)cc2)c1 | – | inactive: -14.4%
10 | O=C1C2CCCCN2C(=O)N1CCCCN1CCN(c2ccccc2Oc2ccccc2)CC1 (configuration not stated) | – | inactive: -22.2%
11 | CCn1c(SCCC#N)nnc1-c1ccncc1 | inconclusive [rising, single point] | –
12 | COCCCN1C(=O)c2[nH]nc(-c3ccccc3O)c2C1c1cccc(Cl)c1 (configuration not stated) | inconclusive [cytotoxic, single point] | –
13 | Cc1cc(SCC(=O)OC(C)C(=O)N(C)c2ccccc2)nc2ccccc12 (configuration not stated) | – | inactive: -8.11%
14 | O=[N+]([O-])c1cccc(/C=C/c2nc3ccc([N+](=O)[O-])cc3[nH]2)c1 | inconclusive [cytotoxic, single point] | –
15 | CC(C)(C)S(=O)N1Cc2cc(C(=O)NCc3ccc4c(c3)OCO4)nc(-c3cccc(-c4ccncc4)c3)c2[C@H]1CCO (some centres not stated) | inconclusive [cytotoxic, single point] | –
16 | Cc1cccc(C)c1-n1nnnc1C(c1ccnc2ccccc12)N1CCN(C/C=C/c2ccccc2)CC1 (configuration not stated) | inconclusive [cytotoxic, single point] | –
17 | CC(C)(C)C1CCc2nc(NC(=O)Cc3cn4ccsc4n3)sc2C1 (configuration not stated) | inconclusive [cytotoxic, single point] | –
18 | CC1=C(C(=O)N(C(C)C)C(C)C)CC(CC(=O)NC2CC2)C(=O)N1Cc1ccc(F)cc1 (configuration not stated) | – | inconclusive: 30.3%
19 | Cc1ccc(C(=O)O)cc1NS(=O)(=O)c1ccc2ccccc2c1 | – | inactive: 18.6%
20 | N=c1n(Cc2ccccc2)c2ccccc2n1CC(O)COc1ccc(Cl)cc1Cl (configuration not stated) | active: 11.6 µM | –
21 | Clc1ccc(-c2nc(-c3ccccn3)no2)cc1Cl | inconclusive [rising, partial curve, poor fit] | –
22 | COC(=O)C1=C(C)NC(=O)/C1=C\c1cc(C)n(-c2cc(C)cc(C)c2)c1C | inconclusive [cytotoxic, single point] | –
23 | Cc1ccc(F)c(NC(=O)/C(C#N)=C(\O)c2ccc(C(C)(C)C)cc2)c1 | inconclusive [cytotoxic, single point] | –
24 | CCOc1ccc2nc(N/C(N)=N/C(=S)Nc3ccc(C)c(C)c3)nc(C)c2c1 | – | inactive: -1.21%

Row | SMILES | Potency | activity, negative = toxicity
25 | CN(C)/C=C/C1=CC(=O)CC(C)(C)C1 | active: 20.6 µM | –
26 | c1ccc(-c2cc(-c3nn4c(-c5ccco5)nnc4s3)c3ccccc3n2)cc1 | inconclusive [cytotoxic, partial curve] | –
27 | COc1ccc(C(=O)C2CCCN(C(=O)c3ccnn3C)C2)c(C)c1 (configuration not stated) | – | inactive: 0.781%
28 | Nn1cnnc1N/N=C/c1cc(Br)cc(Br)c1O | inconclusive [cytotoxic, single point] | –
29 | COCCCn1c(C)cc(C(=O)CN2c3cccc4cccc(c34)S2(=O)=O)c1C | – | inactive: -6.05%
30 | CN(CC(=O)NC(=O)NCc1ccccc1)CC(=O)Nc1ccc(Cl)c(C(F)(F)F)c1 | inconclusive [cytotoxic, partial curve] | –
31 | CC1(C)CC(=O)C2=C(C1)OC1=C(C(=O)CC(C)(C)C1)C2c1cc([N+](=O)[O-])cc([N+](=O)[O-])c1O | inconclusive [cytotoxic, single point] | –
32 | O=C(Nc1ccccc1Cl)c1ccc(Cl)cc1Cl | – | inactive: 12.7%
33 | CC(C)(C)NC(=O)C1CCN(C(=O)c2ccco2)CC1 | – | inactive: 7.02%
34 | CCc1ccc(/C=C2\SC(=S)N(CCC(=O)NCCCN3CCOCC3)C2=O)cc1 | inconclusive [cytotoxic, single point] | –
35 | CC(=O)c1c(C)[nH]c(C(=O)Nc2cc(C)cc(C)c2)c1C | – | inactive: 7.82%
36 | c1ccc(COc2ccc(OCCCNC3CCCC3)cc2)cc1 | inconclusive [cytotoxic, single point] | –
37 | CCN(CC)CCNC(=O)C(=O)Nc1ccc2c(c1)N(S(=O)(=O)c1cccs1)CCC2 | inconclusive [cytotoxic, partial curve] | –
38 | CC1CCC(C(=O)NC(C(=O)N2CCN(c3ccccn3)CC2)C(C)C)CC1 (configuration not stated) | – | inconclusive: 30%
39 | COc1ccccc1NC1CCCCC1NS(=O)(=O)c1ccccc1 (configuration not stated) | – | inactive: -7.91%
40 | Cc1ccc(Oc2c(CO)c(-c3ccccc3)nn2C)cc1 | inconclusive [cytotoxic, partial curve] | –
41 | Cc1cccc(NC(=S)N2CCC(C(N)=O)(N3CCCCC3)CC2)c1C | – | inactive: 11.8%
42 | Cc1ncc(CO)c(/C=N/Nc2ccc(C(F)(F)F)cn2)c1O | inconclusive [cytotoxic, partial curve, poor fit] | –
43 | Cc1c(C)n(Cc2ccc(Cl)cc2)c2ccc(C(=O)NCCN3CCOCC3)cc12 | inconclusive [cytotoxic, single point] | –
44 | Cc1cc(C)c(S(=O)(=O)Nc2ccc3c4c(cccc24)CC3)c(C)c1 | active: 1.03 µM | –
45 | CC1CC(C)CN(S(=O)(=O)c2ccc(NC(=O)c3ccc(=O)[nH]c3)cc2)C1 (configuration not stated) | active: 5.17 µM | –
46 | C[C@@H]1CC=C[C@H]2[C@H]1C(=O)N(Cc1ccccc1)[C@H]2c1ccc(-c2ccc(F)cc2)cc1F | – | inactive: -21.8%
47 | CCCOc1ccc(S(=O)(=O)N2CCN(C)CC2)c2ccccc12 | – | inactive: -14.6%
48 | C[C@@H]1CN([C@@H](C)CO)S(=O)(=O)c2ccc(C#CC(C)(C)O)cc2O[C@H]1CN(C)C(=O)C1CCCCC1 | – | inactive: 9.52%

Row | SMILES | Potency | activity, negative = toxicity
49 | Cc1ccc(C)c(OCCCCn2cnc3ccccc3c2=O)c1 | inconclusive [cytotoxic, single point] | –
50 | CC1(C(=O)NCc2ccc3c(c2)OCO3)CCN1C(=O)C1(c2ccc(Cl)cc2)CC1 (configuration not stated) | – | inactive: -12%
51 | CCn1cc(CN2CCCC(C(=O)Nc3cccc(-c4cc5ccccc5[nH]4)c3)C2)cn1 (configuration not stated) | inconclusive [cytotoxic, partial curve, poor fit] | –
52 | COc1ccc(N(CC(=O)NCc2ccco2)S(=O)(=O)c2ccc(C)cc2)cc1OC | inconclusive [cytotoxic, single point] | –
53 | N#Cc1c(-c2ccc(Cl)cc2)c(-c2ccc(Cl)cc2)nn(CCOC(=O)CCC(=O)O)c1=O | active: 7.31 µM | –
54 | COc1ccccc1CNC(=O)CCCC(=O)n1ncc2cc(C)ccc21 | – | inactive: -1.07%
55 | COc1ccc(CNc2ncnc3sccc23)cc1 | active: 23.1 µM | –
56 | CC1(C(=O)NCc2cccnc2)CCN1C(=O)c1cccc(F)c1 (configuration not stated) | – | inconclusive: 30.3%
57 | CCc1nc2c(OCc3cc(Cl)cc(Cl)c3)cccn2c1N(C)C(=O)c1cccc(OC)c1 | inconclusive [cytotoxic, single point] | –
58 | NNC(=O)c1oc2nc(-c3ccc(Cl)cc3)cc(-c3ccccc3)c2c1N | inconclusive [cytotoxic, single point] | –
59 | CSc1nc(S(=O)(=O)c2ccccc2)c(Cl)s1 | – | inactive: -1.03%
60 | O=C(O)c1cccc(N/N=C(\N=Nc2ccccc2)c2ccccc2)c1 | inconclusive [cytotoxic, full curve] | –
61 | CCCN(CCC)CCCNC(=O)c1cc2c(-c3ccc(OC)c(OC)c3)nn(C)c2s1 | active: 20.6 µM | –
62 | CC(C)C[C@H]1C(=O)N2CCC[C@H]2[C@]2(O)O[C@](NC(=O)[C@@H]3C=C4c5cccc6[nH]c(Br)c(c56)CC4N(C)C3)(C(C)C)C(=O)N12 (some centres not stated) | inconclusive [cytotoxic, partial curve] | –
63 | C/C(=N\NC(=O)c1cc(-c2cccc([N+](=O)[O-])c2)n[nH]1)c1ccccc1O | active: 23.1 µM | –
64 | Cc1ccc([N+](=O)[O-])c(OCCN2CCC(Cc3ccccc3)CC2)c1 | active: 16.4 µM | –
65 | N#Cc1cc2c(nc1SCc1ccccc1)CCC2 | – | inactive: -3.15%
66 | COC1c2ccccc2C(=O)N1Cc1ccc(F)cc1 (configuration not stated) | – | inactive: -0.927%
67 | COC(=O)c1cc(=O)n(-c2ccccc2)c(=Nc2ccccc2)s1 | inconclusive [cytotoxic, single point] | –
68 | O=C1NC2(CCCCC2)NN1c1ccccc1 | active: 5.17 µM | –
69 | CCNC(=O)CCc1nc(-c2ccc(C(C)(C)C)cc2)no1 | inconclusive [cytotoxic, single point] | –
70 | CCCc1ccc2oc(C(=O)N(C)Cc3nccs3)c(C)c2c1 | inconclusive [cytotoxic, single point] | –
71 | CCOc1ccc(S(=O)(=O)N2CCCC(C(=O)NC3CC3)C2)cc1Cl (configuration not stated) | – | inactive: -6.3%
72 | CC1(C(=O)NS(=O)(=O)c2ccc(Cl)s2)CCN1C(=O)Cc1cc(F)ccc1F (configuration not stated) | inconclusive [rising, single point] | –
